Publication PMC4336329 (PLoS ONE, 2015)
Screen size: about 310,000 compounds; about 2,200 (0.71%) showed an effect of 50% or more. The effect is printed as a negative number. The list shows a part of the results.

Target: human ether-à-go-go-related gene (hERG) potassium channel (human, UniProt Q12809)
Test: primary screen, population patch clamp on CHO cells stably expressing hERG

human ether-à-go-go-related gene (hERG) potassium channel, sequence (Q12809 whole entry, looked up): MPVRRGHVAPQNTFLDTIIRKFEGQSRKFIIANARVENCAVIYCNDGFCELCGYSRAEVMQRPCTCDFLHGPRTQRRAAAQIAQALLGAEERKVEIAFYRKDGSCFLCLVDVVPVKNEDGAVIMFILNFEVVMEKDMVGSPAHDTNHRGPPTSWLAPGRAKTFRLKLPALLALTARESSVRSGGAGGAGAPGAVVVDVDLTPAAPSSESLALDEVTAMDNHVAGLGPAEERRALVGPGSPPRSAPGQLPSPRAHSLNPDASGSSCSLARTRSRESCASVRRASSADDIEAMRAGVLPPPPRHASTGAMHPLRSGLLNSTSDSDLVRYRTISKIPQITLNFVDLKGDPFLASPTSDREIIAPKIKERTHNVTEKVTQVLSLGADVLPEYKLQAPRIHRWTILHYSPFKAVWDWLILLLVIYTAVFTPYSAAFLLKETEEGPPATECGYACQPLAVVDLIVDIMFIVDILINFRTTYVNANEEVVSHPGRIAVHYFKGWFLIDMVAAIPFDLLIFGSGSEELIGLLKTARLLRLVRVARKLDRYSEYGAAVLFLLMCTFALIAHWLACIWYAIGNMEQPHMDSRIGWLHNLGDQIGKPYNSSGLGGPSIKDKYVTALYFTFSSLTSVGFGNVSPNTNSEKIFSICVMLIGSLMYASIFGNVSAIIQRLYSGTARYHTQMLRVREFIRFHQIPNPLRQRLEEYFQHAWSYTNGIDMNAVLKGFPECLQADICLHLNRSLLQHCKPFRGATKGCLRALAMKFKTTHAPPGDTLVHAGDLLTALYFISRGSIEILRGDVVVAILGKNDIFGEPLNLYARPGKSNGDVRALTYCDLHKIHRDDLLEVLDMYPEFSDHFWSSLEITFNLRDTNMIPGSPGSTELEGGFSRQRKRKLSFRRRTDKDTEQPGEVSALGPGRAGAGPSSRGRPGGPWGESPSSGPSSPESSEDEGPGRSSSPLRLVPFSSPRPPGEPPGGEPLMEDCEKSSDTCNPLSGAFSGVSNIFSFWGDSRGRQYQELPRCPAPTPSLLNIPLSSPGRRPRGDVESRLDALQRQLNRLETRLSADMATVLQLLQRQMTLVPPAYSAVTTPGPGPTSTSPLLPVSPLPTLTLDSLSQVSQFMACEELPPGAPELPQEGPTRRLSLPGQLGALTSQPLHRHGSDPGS

SMILES	hERG current change (%, negative = inhibition) at 1uM [%]
CCN(CC)CCN1C(=O)C(=O)/C(=C(/O)c2ccc(S(=O)(=O)N3CCOCC3)cc2)C1c1ccccc1 (centres unmarked)	15.3
O=S(=O)(c1ccccc1Br)N1CCC(O)(c2cccnc2)CC1	7.25
O=C(Cn1nc(-c2ccccc2)c2ccccc2c1=O)Nc1ccc2c(c1)nc1n2CCOC1	13.3
CCC(=O)Nc1nc2c(s1)COc1ccccc1-2	12.5
CCCc1ccc(-c2ccc(/C=C/C(=O)O)cc2)nc1	4.8
Cc1ccc(S(C)(=O)=O)cc1C(=O)Nc1cccc(S(=O)(=O)N2CCCCCC2)c1	-33.5
CC(C)CC(=O)N(c1ccc(F)cc1)C1C=CS(=O)(=O)C1 (centres unmarked)	13
Cc1ccc(C(O)(C(=O)NNc2ccc3ccccc3[nH+]2)c2ccc(C)cc2)cc1.[Cl-]	12.6
COc1cc(Cl)c(NC2=CC(=O)C(=O)c3ccccc32)c(OC)c1	9.17
COC(=O)c1c(C)n(Cc2ccc3c(c2)OCO3)c2ccc(O)cc12	9.99
Cc1ccc(CCNC(=O)CCn2ccc3cc(S(=O)(=O)N4CCCC4)ccc32)cc1	8.83
CC(=O)NNC(=O)CSc1nnc(-c2ccccc2)c(-c2ccccc2)n1	15.6
CCN(CC)S(=O)(=O)c1ccc(N2CC(C(=O)NC3(C)CCS(=O)(=O)C3)CC2=O)cc1 (centres unmarked)	15.9
COc1ccccc1C1NC=C([N+](=O)[O-])C=C1[N+](=O)[O-] (centres unmarked)	6
Cc1nnc(SCCn2c(N(C)Cc3ccccc3)nc3c2c(=O)[nH]c(=O)n3C)s1	-8.84
COc1ccc(CNC(=O)COC(=O)C2CC3C=CC2C3)cc1 (centres unmarked)	11.8
CC(=NCCCn1ccnc1)c1c(O)n(-c2ccccc2)c(=O)[nH]c1=O	12.1
C/C(=N\NC(=O)CN1CCOCC1)C(C)(C)C	19.8
CCC(=O)c1ccc(OCCSc2ncccn2)cc1	0.665

SMILES	hERG current change (%, negative = inhibition) at 1uM [%]
COc1ccc(C(C(=O)NCc2ccccc2)N(Cc2ccc3c(c2)OCO3)C(=O)c2cnccn2)cc1 (centres unmarked)	-3.41
C=CCCOc1ccccc1C(N)=O	17.2
Cc1cc(C(=O)COc2ccccc2Cl)c(C)n1-c1ccc2c(c1)OCO2	19
Cc1ccc(NC(=O)Nc2c(C)n(C)n(-c3ccccc3)c2=O)cc1C	10.2
CCCNC1=C(C)C(=O)C2=C(C1=O)C(COC(N)=O)[C@]1(OC)C3NC3CN21 (some centres unmarked)	10.1
COc1ccc(NC(=O)CN2C(=O)CSC(C)C2=O)c(OC)c1 (centres unmarked)	7.04
O=C(CSc1nnc(NC2CCCCC2)s1)Nc1ccc(N2CCOCC2)cc1	1.16
Br.CC[N+](CC)(CC)C/C=C/CN1CCCCC1.[Br-]	-0.121
NC(=O)c1ccc(NC(=O)CN2CCN(c3ccc(Cl)cc3)CC2)cc1	-27.2
COc1cccc(-n2c(COc3ccccc3C)nnc2SCC(=O)O)c1	4.51
COc1ccc(CCN(C)C(=O)C2CCN(Cc3ccccc3)CC2)cc1OC.O=C(O)C(=O)O	7.22
O=C(COC(=O)c1ccccc1Oc1ccccc1)NC1CCS(=O)(=O)C1 (centres unmarked)	12.8
CC(OC(=O)c1ccc(Cl)cc1)C(=O)NCc1ccc2c(c1)OCO2 (centres unmarked)	1.95
CN(C)Cc1cccc([N+](=O)[O-])c1O	13.5
Cc1[nH][nH]c(=O)c1C(c1cc2c(cc1Br)OCO2)c1c(C)[nH][nH]c1=O	16.6
CCC(CC)NC(=O)COC(=O)c1ccc2c(c1)C(=O)N(Cc1ccco1)C2=O	16.5
COc1ccc(C(CNc2ccc(S(=O)(=O)N3CCCC3)cc2[N+](=O)[O-])N2CCCC2)cc1 (centres unmarked)	20
Cc1ccc(NC(=O)C(=O)NCc2ccc(/C=C(/C#N)C(=O)NCc3cccnc3)o2)cc1C	5.03
O=C(O)c1cnn2c1C(=O)N(Cc1cccs1)CC2	14.9

SMILES	hERG current change (%, negative = inhibition) at 1uM [%]
Cc1cccc2sc(NC(=O)CSc3nnnn3C)nc12	10.6
CCCNC(=S)NC1CC2CCCC(C1)N2Cc1ccc(F)cc1 (centres unmarked)	-14.4
Cc1ccc(C(=O)OC2CCCN(C)C2)cc1.Cl (centres unmarked)	8.13
Cc1c(CCOC(=O)c2cc([N+](=O)[O-])cc([N+](=O)[O-])c2)sc[n+]1CCCCS(=O)(=O)[O-]	10.2
CC1(C)C(=O)Nc2ccccc2N1C(=O)CSc1ncccn1	-16.1
Cc1ccc(S(=O)(=O)NC2CCCCCCC2)cc1	16.5
CC1(C)CC(=O)CC(=Nc2ccc3[nH]c(=O)[nH]c3c2)C1	6.17
COCCn1nnnc1C(c1cccs1)N1CCCC(C)C1.Cl (centres unmarked)	4.83
Cc1cc(C)c(C)c(S(=O)(=O)NCCN2CCOCC2)c1C	-2.4
COc1ccc(NC(=O)C/C(C)=N/NC(=O)c2cnccn2)cc1	10.1
COc1ccc(CCN2CCCC(CN(C)Cc3cc(Cl)c(O)c(OC)c3)C2)cc1 (centres unmarked)	4.6
COc1ccc(OC)c(NS(=O)(=O)c2cc(OC)ccc2OC)c1	7.83
C/C(CC(=O)Nc1cc(C)ccn1)=N\NC(=O)c1ccncc1	12.1
CCC(Sc1ccc2nnc(-c3ccc(F)cc3)n2n1)C(=O)OC (centres unmarked)	-29.2
COc1ccc(OCc2cc(C(=O)N(C)Cc3cnccn3)no2)c(Cl)c1	9.12
COc1ccc(CCNC2=C(Cl)C(=O)N(Cc3ccccc3)C2=O)cc1OC	7.63
C=CCNc1nc2ccccc2nc1NS(=O)(=O)c1cccc(C)c1	18.7
CC(=O)CC(=O)NC1C2CC3CC(C2)CC1C3 (centres unmarked)	13.3
